Data from the supplement of paper PMC12217912.
The other results are listed elsewhere or left out. The full chains were built here from the parent and the listed change. Values near 0.05 are background.

B1: TEV protease; numbered along this chain (parent)
chain: MGESLFKGPRDYNPISSSICHLTNESDGHTTSLYGIGFGPFIITNKHLFRRNNGTLVVQSLHGVFKVKDTTTLQQHLVDGRDMIIIRMPKDFPPFPQKLKFREPQREERICLVTTNFQTKSMSSMVSDTSCTFPSGDGIFWKHWIQTKDGQCGSPLVSTRDGFIVGIHSASNFTNTNNYFTSVPKNFMELLTNQEAQQWVSGWRLNADSVLWGGHKVFMVKPEEPFQPVKEATQL

Variants of: B1
Assay: raw area under fraction-flipped curve 0-4 h after induction (AUC4h, not background-subtracted), DNA-recorder readout of cleavage of the substrate (dimensionless); higher = more cleavage of the substrate by the protease variant
Conditions: temperature: 34 °C; time window: 0-4 h after rhamnose induction
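Note: Bxb1 expression induced with 0.2% (w/v) L-rhamnose at OD600 near 0.5, cultures sampled hourly, flipped fraction per protease–substrate barcode pair counted by paired-end Illumina sequencing.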

Variant: MGESLFKGPRDYNPISSSICHLTNESDGHTTSLYGIGFGPFIITNKHLFRRNNGTLVVQSLHGVFKVKDITTLQQHLVDGRDMIIIRMPKDFPPFPQKLKFREPQREERICLVTTNFQTKSMSSMVSDTSCTFPSGDGIFWKHWIQTKDGQCGSPLVSTRDGFIVGIHSASNFTNTNNYFTSVPKNFMELLTNQEAQQWVSGWRLNADSVLWGGHKVFMVKPEEPFQPVKEATQL [T70I]
- area with substrate ENLYEQS: 0.0619
- area with substrate ENLYGQS: 0.0693
- area with substrate ENLYHQS: 0.0588
- area with substrate ENLYKQS: 0.0737
- area with substrate ENLYLQS: 0.0832
- area with substrate ENLYMQS: 0.0578
- area with substrate ENLYNQS: 0.0708
- area with substrate ENLYPQS: 0.0561
- area with substrate ENLYQQS: 0.0557
- area with substrate ENLYRQS: 0.0576
- area with substrate ENLYVQS: 0.078
- area with substrate ENLYWQS: 0.0731

Variant: MGESLFKGPRDYNPISSAICHLTNESDGHTTSLYGIGFGPFIITNKHLFRRNNGTLVVQSLHGVFKVKDTTTLQQHLVDGRDMIIIRMPKDFPPFPQKLKFREPQREERICLVTTNFQTKSMSSMVSDTSCTFPSGDGIFWKHWIQTKDGQCGSPLVSTRDGFIVGIHSASNFTNTNNYFTSVPKNFMELLTNQEAQQWVSGWRLNADSVLWGGHKVFMVKPEEPFQPVKEATQL [S18A]
- area with substrate ENLYEQS: 0.0564
- area with substrate ENLYHQS: 0.0542
- area with substrate ENLYLQS: 0.0724
- area with substrate ENLYMQS: 0.093
- area with substrate ENLYPQS: 0.0697
- area with substrate ENLYQQS: 0.0327
- area with substrate ENLYSQS: 0.0579
- area with substrate ENLYTQS: 0.0928
- area with substrate ENLYVQS: 0.117
- area with substrate ENLYWQS: 0.0784
- area with substrate ENLYYQS: 0.07

Variant: MGESLFKGPRDYNPISSSICHLTNESDGHTTSLYGIGFGPFIITNKHLFRRNNGTLVVQSLHGVFKVKDTTTLQQHLVDGRDMIIIRMPKDFPPFPQKLKFREPQREERICLVTTNFQTKSMSSMVSDTSCTFPSGDGIFWKHWIQTKDGQCGSPLVSTRDGFIVGIHSASNFTNTNNYFTSVPKNFMELLTNQEAQQWVSGWRLNADSVLWGGHKVFMVKPEEPFQPVKEATNL [Q234N]
- area with substrate ENLYEQS: 0.0693
- area with substrate ENLYGQS: 0.0858
- area with substrate ENLYHQS: 0.0581
- area with substrate ENLYIQS: 0.101
- area with substrate ENLYLQS: 0.0969
- area with substrate ENLYNQS: 0.0625
- area with substrate ENLYPQS: 0.0688
- area with substrate ENLYQQS: 0.0578
- area with substrate ENLYRQS: 0.0518
- area with substrate ENLYSQS: 0.11
- area with substrate ENLYTQS: 0.0734
- area with substrate ENLYWQS: 0.0929
- area with substrate ENLYYQS: 0.0977

Variant: MGESLFKGPRDYNPISSSICHLTNESDGHTTSLYGIWFGPFIITNKHLFRRNNGTLVVQSLHGVFKVKDTTTLQQHLVDGRDMIIIRMPKDFPPFPQKLKFREPQREERICLVTTNFQTKSMSSMVSDTSCTFPSGDGIFWKHWIQTKDGQCGSPLVSTRDGFIVGIHSASNFTNTNNYFTSVPKNFMELLTNQEAQQWVSGWRLNADSVLWGGHKVFMVKPEEPFQPVKEATQL [G37W]
- area with substrate ENLYEQS: 0.05
- area with substrate ENLYGQS: 0.0608
- area with substrate ENLYHQS: 0.0511
- area with substrate ENLYKQS: 0.0199
- area with substrate ENLYLQS: 0.0561
- area with substrate ENLYMQS: 0.0595
- area with substrate ENLYNQS: 0.0597
- area with substrate ENLYPQS: 0.063
- area with substrate ENLYRQS: 0.0714
- area with substrate ENLYSQS: 0.0687
- area with substrate ENLYTQS: 0.07
- area with substrate ENLYVQS: 0.0665
- area with substrate ENLYWQS: 0.0204

Variant: MGESLFKGPRDYNPISSSICHLTNESDGHTTSLYGIGFGPFIITNKHLFRRNNGTLVVQSLHGVFKVKDTTTLQQHLVDGRDMIIIRMPKDFPPFPQKLKFREPQREERICLVTTNFQTKSMSSMVSDTSCTFPSGDGIFWKHWIQTKDGQCGSPLVSTRDGFIVGIHSASNFTNTNNYFTSVPKNMMELLTNQEAQQWVSGWRLNADSVLWGGHKVFMVKPEEPFQPVKEATQL [F187M]
- area with substrate ENLYEQS: 0.0639
- area with substrate ENLYGQS: 0.0656
- area with substrate ENLYHQS: 0.0629
- area with substrate ENLYIQS: 0.0894
- area with substrate ENLYKQS: 0.0593
- area with substrate ENLYMQS: 0.0819
- area with substrate ENLYNQS: 0.0711
- area with substrate ENLYPQS: 0.0653
- area with substrate ENLYQQS: 0.0643
- area with substrate ENLYRQS: 0.0464
- area with substrate ENLYTQS: 0.0829
- area with substrate ENLYVQS: 0.129
- area with substrate ENLYWQS: 0.076
- area with substrate ENLYYQS: 0.0742

Variant: MGESLFKGPRDYNPISSSICHLTNESDGHTTSLYGIGFGPFIITNKHLFRRNNGTLVVQSLHGVFKVKDTTTLQQHLVDGRDMIIIRMPKDFPPFPQKLKFREPQREERICLVTTNFQTKSMSSMVSDTSCTFPSGDGIFWKHWIQTKDGQCGSPLVSTRDGFIVGIHSASNFTNTNNYFTSVPKNFMELLTNQEAQQWVSGWRLNADSVLWGGHKVFMVKPEEPFQPFKEATQL [V229F]
- area with substrate ENLYDQS: 0.0558
- area with substrate ENLYEQS: 0.0707
- area with substrate ENLYGQS: 0.0803
- area with substrate ENLYHQS: 0.07
- area with substrate ENLYIQS: 0.0844
- area with substrate ENLYKQS: 0.0892
- area with substrate ENLYMQS: 0.0876
- area with substrate ENLYNQS: 0.0683
- area with substrate ENLYPQS: 0.0672
- area with substrate ENLYQQS: 0.0697
- area with substrate ENLYSQS: 0.0764
- area with substrate ENLYVQS: 0.105
- area with substrate ENLYWQS: 0.113
- area with substrate ENLYYQS: 0.0688

Variant: MGESLFKGPRDYNPISSSICHLTNESDGHTTSLYGIGFGPFIITNKHLFRRNNGTLVVQSLHGVFKVKDTTTLQQHLVDGRDMIIIRMPKDFPPFPQKLKFREPQREEQICLVTTNFQTKSMSSMVSDTSCTFPSGDGIFWKHWIQTKDGQCGSPLVSTRDGFIVGIHSASNFTNTNNYFTSVPKNFMELLTNQEAQQWVSGWRLNADSVLWGGHKVFMVKPEEPFQPVKEATQL [R109Q]
- area with substrate ENLYEQS: 0.0723
- area with substrate ENLYGQS: 0.0236
- area with substrate ENLYHQS: 0.0694
- area with substrate ENLYIQS: 0.117
- area with substrate ENLYMQS: 0.0731
- area with substrate ENLYNQS: 0.0724
- area with substrate ENLYPQS: 0.0587
- area with substrate ENLYQQS: 0.0265
- area with substrate ENLYRQS: 0.055
- area with substrate ENLYTQS: 0.0849
- area with substrate ENLYWQS: 0.0951
- area with substrate ENLYYQS: 0.0627

Variant: MGESLFKGPRDYNPISSSICHLTNESDGHTTSLYGIGFGPFIITNTHLFRRNNGTLVVQSLHGVFKVKDTTTLQQHLVDGRDMIIIRMPKDFPPFPQKLKFREPQREERICLVTTNFQTKSMSSMVSDTSCTFPSGDGIFWKHWIQTKDGQCGSPLVSTRDGFIVGIHSASNFTNTNNYFTSVPKNFMELLTNQEAQQWVSGWRLNADSVLWGGHKVFMVKPEEPFQPVKEATQL [K46T]
- area with substrate ENLYEQS: 0.0584
- area with substrate ENLYGQS: 0.0519
- area with substrate ENLYHQS: 0.0611
- area with substrate ENLYIQS: 0.0748
- area with substrate ENLYKQS: 0.062
- area with substrate ENLYMQS: 0.0754
- area with substrate ENLYNQS: 0.0572
- area with substrate ENLYPQS: 0.0675
- area with substrate ENLYRQS: 0.0535
- area with substrate ENLYSQS: 0.0542
- area with substrate ENLYTQS: 0.0552
- area with substrate ENLYVQS: 0.109
- area with substrate ENLYWQS: 0.0618

Variant: MGESLFKGPRDYNPISSSICHLTNESDGHTTSLYGIGFGPFIITNKHLFRRNNGTLVVQSLHGVFKVKDTTTLQQHLVDGRDMIIIRMPKDFPPFPQKLKFREPQREERICLVTTNFQTKSMSSMVSDTSCTFPSGDGIFWKHWIQTKDGQCGSPLVSTRDGFIVGIHSASNFTNTNNYFTSVPKNFPELLTNQEAQQWVSGWRLNADSVLWGGHKVFMVKPEEPFQPVKEATQL [M188P]
- area with substrate ENLYEQS: 0.0668
- area with substrate ENLYGQS: 0.0343
- area with substrate ENLYHQS: 0.091
- area with substrate ENLYKQS: 0.0566
- area with substrate ENLYPQS: 0.0476
- area with substrate ENLYTQS: 0.0733
- area with substrate ENLYVQS: 0.111
- area with substrate ENLYWQS: 0.0796

Variant: MGESLFKGPRDYNPISSSICHLTNESDGHTTSLYGIGFGPFIITNKHLFRRNNGTLVVQSLHGVFKVKDTTTLQQHLVDGRDMIIIRMPKDFPPFPQKLKFREPQREERICLVTTNFQTKSMSSMVSDTSCTFPSGDGIFWKHWIQTKDGQCGSPLVSTRDGFIVGIHSASNFTNTNNYFTSVPKNFMELLTNQEAQQWVSGWRLNADSVLWGGHKVFMVKPIEPFQPVKEATQL [E223I]
- area with substrate ENLYEQS: 0.0704
- area with substrate ENLYGQS: 0.0629
- area with substrate ENLYHQS: 0.0645
- area with substrate ENLYIQS: 0.105
- area with substrate ENLYKQS: 0.0542
- area with substrate ENLYMQS: 0.0533
- area with substrate ENLYNQS: 0.07
- area with substrate ENLYPQS: 0.067
- area with substrate ENLYVQS: 0.0808
- area with substrate ENLYWQS: 0.0783
- area with substrate ENLYYQS: 0.0682
